# Measured values as given in PMC4336329 (PLoS ONE, 2015).
# In all, about 310,000 compounds went through this assay and about 2,200 (0.71%) showed an effect of 50% or more. The effect is printed as a negative number. The list shows a part of the results.
# Target: human ether-à-go-go-related gene (hERG) potassium channel (human, UniProt Q12809)
# Assay: primary screen, population patch clamp on CHO cells stably expressing hERG
# human ether-à-go-go-related gene (hERG) potassium channel, sequence (Q12809 whole entry, looked up): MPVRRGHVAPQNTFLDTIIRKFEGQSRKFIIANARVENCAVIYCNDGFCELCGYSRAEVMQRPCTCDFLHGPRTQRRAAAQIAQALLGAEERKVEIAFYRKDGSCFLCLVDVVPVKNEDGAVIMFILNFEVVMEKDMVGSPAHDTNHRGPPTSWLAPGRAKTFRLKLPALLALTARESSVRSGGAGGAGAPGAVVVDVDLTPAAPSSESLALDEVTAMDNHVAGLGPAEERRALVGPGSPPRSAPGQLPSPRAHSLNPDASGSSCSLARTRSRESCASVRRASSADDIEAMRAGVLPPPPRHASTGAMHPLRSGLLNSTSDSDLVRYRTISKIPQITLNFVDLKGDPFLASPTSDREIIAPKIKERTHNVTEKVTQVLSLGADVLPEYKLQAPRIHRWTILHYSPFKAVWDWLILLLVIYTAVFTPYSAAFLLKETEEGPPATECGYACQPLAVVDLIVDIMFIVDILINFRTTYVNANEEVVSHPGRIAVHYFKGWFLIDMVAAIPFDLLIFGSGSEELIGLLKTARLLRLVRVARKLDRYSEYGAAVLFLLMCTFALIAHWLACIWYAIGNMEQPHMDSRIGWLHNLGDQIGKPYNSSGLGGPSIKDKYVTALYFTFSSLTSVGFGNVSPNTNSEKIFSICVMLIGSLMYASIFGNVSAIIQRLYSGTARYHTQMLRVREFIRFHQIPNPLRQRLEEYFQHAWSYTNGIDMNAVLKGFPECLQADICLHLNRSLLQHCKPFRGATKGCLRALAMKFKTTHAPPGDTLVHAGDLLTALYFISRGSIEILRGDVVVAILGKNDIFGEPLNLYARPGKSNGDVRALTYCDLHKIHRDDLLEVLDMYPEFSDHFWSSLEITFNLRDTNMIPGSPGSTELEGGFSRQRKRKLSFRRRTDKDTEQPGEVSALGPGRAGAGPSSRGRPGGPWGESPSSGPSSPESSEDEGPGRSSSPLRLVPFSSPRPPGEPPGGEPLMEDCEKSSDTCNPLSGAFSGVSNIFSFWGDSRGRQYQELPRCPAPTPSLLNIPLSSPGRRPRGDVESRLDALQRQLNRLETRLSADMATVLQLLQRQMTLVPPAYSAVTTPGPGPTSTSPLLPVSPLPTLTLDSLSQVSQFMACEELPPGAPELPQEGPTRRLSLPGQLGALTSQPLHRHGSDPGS
row,Structure (SMILES),"hERG current change (%, negative = inhibition) at 1uM"
1,Cc1cc(C)n2nc(C(=O)Nc3ccc4c(c3)CCC4)nc2n1,3.95%
2,CCCc1ccc(OC(=O)c2cccs2)cc1,2.87%
3,COc1ccc(CNC(=O)CN(Cc2ccccc2Cl)C(=O)c2csnn2)cc1,2.58%
4,Cc1ccc(-n2c(SCC(=O)N/N=C/c3ccccc3C(=O)O)nnc2-c2ccc(Cl)cc2)cc1,5.34%
5,CCN(CC)C(=O)Cn1cc(S(=O)(=O)CC(=O)N2CCOCC2)c2ccccc21,7.45%
6,Cc1cc(C)nc(NC(=O)c2ccc(Br)s2)n1,12.7%
7,O=C(O)C1CC=CCC1C(=O)c1ccccc1 (stereo not drawn),0.206%
8,CC1CCN(C(=O)c2cc(-c3ccco3)on2)CC1,4.2%
9,CC(C)(C)c1cc(NC(=O)c2ccc(OC3CCCC3)cc2)no1,16.6%
10,O=C(NCc1ccccc1F)C1CCCN1C(=O)Nc1cccc(F)c1 (stereo not drawn),9.43%
11,N/C(=N\OC(=O)c1cc([N+](=O)[O-])ccc1Cl)c1cccnc1,11.6%
12,OC(COc1cccc2ccccc12)CN1CCN(c2cccc(Cl)c2)CC1 (stereo not drawn),8.8%
13,Cc1ccc(Cl)cc1NC(=O)c1cnn2c1NC(c1ccco1)CC2C(F)(F)F (stereo not drawn),-1.95%
14,OCCC1CN(Cc2cn[nH]c2C2CCCCC2)CCN1Cc1ccccc1 (stereo not drawn),6.61%
15,CC(C)(C)NS(=O)(=O)c1ccc(NS(=O)(=O)c2ccc(F)cc2)cc1,9.01%
16,O=C1CNC(=O)/C1=C\N1CCCCC1,11.6%
17,C/C(=N\NC(=O)c1c(Cl)c(C)nn1C)c1cccc(NC(=O)COc2ccc(Cl)cc2)c1,9.45%
18,COc1ccc(C(=O)NCCc2cc3c(OC)ccc(OC)c3[nH]c2=O)cc1OC,8.19%
19,O=c1[nH]c(CN2CCN(S(=O)(=O)c3ccc4ccccc4c3)CC2)nc2ccccc12,7.63%

row,Structure (SMILES),"hERG current change (%, negative = inhibition) at 1uM"
1,CC(C(=O)NCC1CCCCC1)N(C)Cc1cccc(Cl)c1 (stereo not drawn),12.3%
2,CC(=O)c1cccc(NC(=O)COc2ccccc2C(=O)c2cc(C#N)c(=O)n(C3CCCCC3)c2)c1,-5.79%
3,CC1CCCN(C(=O)C2CCN(c3ncnc4c3nc3n4CCCCC3)CC2)C1 (stereo not drawn),13.7%
4,C/C(=N\O)c1ccc(Cl)c(Cl)c1,15.7%
5,O=C(c1ccc2ccccc2c1)N1CCN(Cc2ccccc2)CC1,8.13%
6,CN(C)c1ccc(NC(=O)CC2NCCNC2=O)cc1 (stereo not drawn),-2.06%
7,Cl.N[C@@H](CO)c1cn([C@@H](Cc2cc3ccccc3[nH]2)C(=O)N2CCNCC2)nn1,12.4%
8,Cc1ccccc1CN1CCC(Oc2ccc(C(=O)N3CCCC3)cc2)CC1,12.2%
9,Cc1cccc(C(=O)NNC(=O)c2cccc(C)c2)c1,13%
10,CC(C)CCN1C(=O)CCC1(C)C(=O)NC1CCCCCC1 (stereo not drawn),-8.55%
11,Cc1ccsc1-c1nc(CSCC(=O)N2CCC3(CC2)OCCO3)c(C)o1,8.72%
12,COCCn1nnnc1CN1CCOCC1.Cl,11.7%
13,O=C1NC(=O)C(=Cc2ccc(-c3ccc(S(=O)(=O)N4CCOCC4)cc3)o2)C(=O)N1,16.4%
14,Cc1cccc(CN2CCN(Cc3cccc4nonc34)CC2CCO)n1 (stereo not drawn),7.4%
15,COc1cc(NC(=O)C2CC2)c(C(=O)O)cc1OC,9.08%
16,Cc1cc(Cl)n2ncc(-c3ccccc3)c2n1,10.1%
17,O=C(/C=C/c1ccco1)Nc1cccnc1,3.48%
18,COC(=O)CCc1c(C)c(C(=O)c2cc(F)c(F)c(F)c2F)c2ccccn12,12.3%
19,O=C(c1ccco1)c1cn(CC(=O)N2CCCCC2)c2ccccc12,3.73%

row,Structure (SMILES),"hERG current change (%, negative = inhibition) at 1uM"
1,CC(=O)Nc1sc(C)c(C)c1C(=O)OCC(=O)N(Cc1ccccc1)C(C)C,10.8%
2,CC(C)CNC(=O)NC(=O)COC(=O)C1CSC2(c3ccc(F)cc3)CCC(=O)N12 (stereo not drawn),10.8%
3,CCn1c(O)c(N=NC(=O)c2cccnc2)c2cc(Br)ccc21,7.67%
4,CN(C)c1ccc(C(CC(=O)O)NC(=O)c2ccc(Cl)cc2)cc1 (stereo not drawn),-3.81%
5,CCn1cc(C(=O)NCc2ccncc2)c(=O)c2cc(F)c(N3CCN(C(=O)c4ccco4)CC3)cc21,-33.1%
6,O=C(O)c1ccc(OCc2occc2C(=O)O)cc1,7.63%
7,COC(=O)C1C2C=CC3(CN(Cc4ccco4)C(=O)C13)O2 (stereo not drawn),17.6%
8,CC(C)(C)NS(=O)(=O)c1ccc(OCC(=O)N2CCN(Cc3ccccc3)CC2)cc1,3.49%
9,CC(=O)c1cccc(N(CC(=O)Nc2ccccc2F)S(C)(=O)=O)c1,13.2%
10,CCc1cc2c(=O)c(-c3nc4ccccc4[nH]3)coc2c(CN2CCCCC2)c1O,-4.7%
11,COc1cc(CNCc2ccc(SC)cc2)cc(OC)c1,6.88%
12,CCCOc1ccc(NC(=O)c2cc3cc(C)ccc3[nH]2)cc1,15.1%
13,Nc1ccccc1Nc1ccncc1[N+](=O)[O-],11.9%
14,O=C(NN/C(=N/S(=O)(=O)c1ccc(Cl)cc1)c1ccccc1)c1cccc(Cl)c1,11.7%
15,C[C@H]1CCC(=O)N([C@H](CSc2ccc(Br)cc2)Cc2ccccc2)CC1,12.2%
16,COc1ccc(S(=O)(=O)N2CCC(C(=O)NC3CCCC3)CC2)cc1C,9.67%
17,COc1ccc(OC)c(-n2c(O)c(C=NCc3ccc4c(c3)OCO4)c(=O)[nH]c2=O)c1,8.24%
18,CC(=O)O[C@@H]1[C@H](OC(=O)CC(C)C)c2c(ccc3ccc(=O)oc23)OC1(C)C,-22.3%
19,COC(=O)c1ccc(N(C(=O)c2ccco2)C(C(=O)NC2CCCC2)c2ccco2)cc1 (stereo not drawn),0.201%
